Data: the supplement of paper PMC10338343
± gives the standard deviation. Whole data set: some 3,700 sequences, median “pre-steady-state target cleavage rate” near 0.02, cut for the highest 2% near 0.23. The entries are a selection whose mix differs from that of the whole data set.

Each sequence was assayed on MILI (PIWIL2) piRISC loaded with Kctd7 piRNA (26 nt) (assay: pre-steady-state target cleavage rate (min^-1); MIWI and MILI are mouse PIWI proteins and EfPiwi is from a freshwater sponge; tags in brackets are library labels; higher = faster piRNA-guided slicing of the target). Details: guide: Kctd7 piRNA 5'p-UGUUAAUCUCUCAGAGAAGGUGACAG; auxiliary factor: 500 nM mouse GTSF1.
Summary of the method: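 In this Cleave-'n-Seq assay, uncleaved targets were sequenced and normalised to depth and to weakly complementary targets. They came from a transcribed, DNA-blocked target RNA library […] mixed with 1 nM active affinity-purified piRISC carrying one synthetic guide, with or without 500 nM GTSF1 partner protein, in HEPES–potassium acetate buffer at 33 °C for 0–8 or 0–960 min. After three trials were pooled and k3 was capped at 0.0001 min^-1, the pre-steady-state cleavage rate was obtained from a burst-and-steady-state fit.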
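Further: 1 nM active piRISC with 0.1 nM target library at 33 °C single turnover.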

Sequence	pre-steady-state target cleavage rate
UAGUCAGUCACCUUCUCUGAGAGAUAAACA	0.107 ± 0.018
UAGUGACACACCUUCUCAGAGAGAUUUACA	0.0481 ± 0.016
UAGUGACACACCUUCUCUGAGAGAUUUACA	0.16 ± 0.025
UAGUGACAGUGGAACUCUGAGAGAAUAACA	< 0.0001
UAGUGACUGACCUUCUCUGAGAGAUUUACA	0.137 ± 0.029
UAGUGACAGUCCAUUCUCUGAGAGAUUAACA	0.0543 ± 0.0048
UAGUGACUCAACCUUCUCUGAGAGAUUAACA	0.0845 ± 0.0075
UAGUGACAGACCUUCUCUCAGACAUUAACA	0.0153 ± 0.0052
UAGUGACAGACCUUCUCUGUGAGAUUUACA	0.0208 ± 0.011
UAGUGAGUGACCUUCUCUGAGAGAAUAACA	0.0354 ± 0.015
UAGUGACACACCCUUCUCUGAGAGAUUAACA	0.0865 ± 0.012
UAGUGACAGUCCAUCUCUGAGAGAUUUACA	0.00707 ± 0.0035
UAGUGACUCACCUACUCAGAGAGAUUAACA	0.0461 ± 0.0094
UAGUGACUCACCUUCACUGAGAGAUUAUGA	0.0684 ± 0.018
UAGUGACACACCUUCACUGAGAGAUUUACA	0.19 ± 0.044
UAGUCGGUCACCUUCUCUGAGAGAUUAACA	0.196 ± 0.0068
UAGUGUGUCACCUUCUCUGGAGAUUAACA	0.018 ± 0.0067
UAGUGACAGAGGAUCUCUGAGAGAUUAACA	0.00378 ± 0.0013
UAGUGACACACCUUCUCUGAGAAGAUUAACA	0.0568 ± 0.0091
UAGUGACUCACCUUCACUCAGAGAUUAACA	0.0101 ± 0.0048
UAGUGUGUCACCUUCUCUGAGAGAUCAACA	0.142 ± 0.026
UAGUGAGACACCUUCUCUCAGAGAUUAACA	0.0299 ± 0.0053
UAGUGACAGAGCUUCUCUGAGAGUUUAACA	0.0156 ± 0.0064
UAGUGACAGUGGAACUCUGAGAGAUUACCA	< 0.0001
UAGUGACAGUCUUUCUCUGAGAGAUUAACA	0.0604 ± 0.0059

Sequence	pre-steady-state target cleavage rate
UAGUGAGUCACCUUCUCUGAGAGACUAACA	0.114 ± 0.02
UAGUCUGUGACCUUCUCUGAGAGAUUUACA	0.0895 ± 0.013
UAGUGACAGUCCUUCCUGAGAGAUUAACA	0.00498 ± 0.0043
UAGUGACAGUGCUUGUCUGACAGAUUAACA	0.00371 ± 0.0032
UAGUGACACUCCUUCACUGAGAGAUUAACA	0.103 ± 0.012
UAGUGAGUCACCUUCUCUGAGAGAGUAACA	0.239 ± 0.063
UAGUGAGUCACCUUCUCGGAGAGAUUAACA	0.16 ± 0.011
UAGUCUGUCACCUUCUCUGAGAGAAAUACA	0.032 ± 0.013
UAGUCUGUCACCUUCUCUGAGAGAAUUAACA	0.32 ± 0.051
UAGUGUGUCACCUUCUCUCAGAGAUUAUCA	0.0268 ± 0.011
UAGUGACUCACCUACUCUGAGACAUUAACA	0.033 ± 0.0067
UAGUGACACAGCUUGUCUGAGAGAUUAACA	0.084 ± 0.013
UAGUGACACACCUUCUGAGAGAGAUUAAGA	0.0191 ± 0.0097
UAGUGACUCUCCUUCACUGAGAGAUUAACA	0.0804 ± 0.011
UAGUCUGUCACGAUCUCUGAGAGAUUAACA	0.133 ± 0.0078
UAGUGUGUCACCUUCUCUGAGAGAUUAACC [g2:g25:cont:t1C]	0.202 ± 0.014
UAGUGACAGACGUUCUCUGUGAGAUUAACA	0.0237 ± 0.0054
UAGUCAGUCACCUUCUCUGAGAGAAUAACA	0.218 ± 0.043
UAGUGUGUCACCUUCUCAGAGUGAUUAACA	0.00684 ± 0.0045
UAGUGACAGACCUUCCUGAGAGAUUAACA	0.00793 ± 0.0048
UAGUGACAGACCUUCUCUGAGAGAUUGACA	0.0808 ± 0.02
UAGUGACAGUGCUACUCUGAGAGAUUAUCA	0.00306 ± 0.0025
UAGUGUGACAGCUUCUCUGAGAGAUUAACA	0.0832 ± 0.0075
UAGUGACAGACCUUCUCUGAGAGAUUAUCA	0.076 ± 0.017
UAGUGACUCACCUUGUCUGAGAGAUUUACA	0.0672 ± 0.024

Sequence	pre-steady-state target cleavage rate
UAGUGACACACCUUCUCUGAGAGAUGAACA	0.0713 ± 0.024
UAGUGACUCACCUUGACUGAGAGAUUAACA	0.00701 ± 0.004
UAGUGUGUCACGUUCUCUGUGAGAUUAACA	0.0371 ± 0.0033
UAGUGUGUCACCUUCUCUGAGAUGAUUAACA	0.0992 ± 0.012
UAGUGUGUCACCUUCUCUGAGCGAUUAACA	0.0254 ± 0.011
UAGUGACUCACGUUCUCUGAGAGUUUAACA	0.032 ± 0.0065
UAGUGACAGUGGAAGACUGAGAGAUUGAACA	< 0.0001
UAGUGACUGUCCUUCUCUGAGAGAUUAAGA	0.0592 ± 0.021
UAGUCUGUCACGUUCUCUGAGAGAAUAACA	0.0645 ± 0.0087
UAGUGACAGACCUUCUCUGAGAGAUUAAA	0.041 ± 0.015
UAGUCUGUCAGCUUCUCAGAGAGAUUAACA	0.119 ± 0.0095
UAGUGACACACCUUCUGUGAGAGAUAAACA	0.087 ± 0.041
UAGUGACUCACCUUACUCUGAGAGAUUAACA	0.0622 ± 0.007
UAGUGACAGUCCUAUCUCUGAGAGAUUAACA	0.0434 ± 0.0048
UAGUGACAGACGAUCUCUGAGAGAUUAACA	0.0147 ± 0.0042
UAGUGACAGACCUUCACUGUGAGAUUAACA	0.0374 ± 0.0089
UAGUGUGUCACCUUCUUGAGAGAUUAACA	0.0331 ± 0.014
UAGUGACACACCUUCUUGAGAGAUUAACA	0.0144 ± 0.0065
UAGUGACUCACCUUCUCAGAGACAUUAACA	0.0723 ± 0.0081
UAGUGACAGUGGUUCUCUGAGAGAAAUACA	< 0.0001
UAGUGACAGUGCUACUCUGAGAGAUUAACA	0.00794 ± 0.0011
UAGUCUGUCACCUUCUCUCAGAGAUUUACA	0.0575 ± 0.014
UAGUCUGUCACCUUCCUCUGAGAGAUUAACA	0.178 ± 0.012
